{"source": "PubChem BioAssay AID1347165", "about": "(National Center for Advancing Translational Sciences (NCATS), 2019)", "note": "Out of some 220,000 compounds screened, about 5,700 (2.6%) were called active. The shares of active, inactive and inconclusive entries below differ from those in the screen. The call rests on the fitted dose curve; in most records, active means well fitted inhibition curve with a large enough effect; inconclusive means small, poorly fitted or top-dose-only effect; inactive means no such curve, though single readings can be large or run the other way. Potencies of inconclusive entries are doubtful fits and often do not repeat. Potency means the concentration at half of the fitted maximal effect; tags describe the fitted curve by direction and shape."}
{"target": "Lysine-specific demethylase 5B (Homo sapiens) (UniProt Q9UGL1)", "sequence (Q9UGL1 whole entry, looked up)": "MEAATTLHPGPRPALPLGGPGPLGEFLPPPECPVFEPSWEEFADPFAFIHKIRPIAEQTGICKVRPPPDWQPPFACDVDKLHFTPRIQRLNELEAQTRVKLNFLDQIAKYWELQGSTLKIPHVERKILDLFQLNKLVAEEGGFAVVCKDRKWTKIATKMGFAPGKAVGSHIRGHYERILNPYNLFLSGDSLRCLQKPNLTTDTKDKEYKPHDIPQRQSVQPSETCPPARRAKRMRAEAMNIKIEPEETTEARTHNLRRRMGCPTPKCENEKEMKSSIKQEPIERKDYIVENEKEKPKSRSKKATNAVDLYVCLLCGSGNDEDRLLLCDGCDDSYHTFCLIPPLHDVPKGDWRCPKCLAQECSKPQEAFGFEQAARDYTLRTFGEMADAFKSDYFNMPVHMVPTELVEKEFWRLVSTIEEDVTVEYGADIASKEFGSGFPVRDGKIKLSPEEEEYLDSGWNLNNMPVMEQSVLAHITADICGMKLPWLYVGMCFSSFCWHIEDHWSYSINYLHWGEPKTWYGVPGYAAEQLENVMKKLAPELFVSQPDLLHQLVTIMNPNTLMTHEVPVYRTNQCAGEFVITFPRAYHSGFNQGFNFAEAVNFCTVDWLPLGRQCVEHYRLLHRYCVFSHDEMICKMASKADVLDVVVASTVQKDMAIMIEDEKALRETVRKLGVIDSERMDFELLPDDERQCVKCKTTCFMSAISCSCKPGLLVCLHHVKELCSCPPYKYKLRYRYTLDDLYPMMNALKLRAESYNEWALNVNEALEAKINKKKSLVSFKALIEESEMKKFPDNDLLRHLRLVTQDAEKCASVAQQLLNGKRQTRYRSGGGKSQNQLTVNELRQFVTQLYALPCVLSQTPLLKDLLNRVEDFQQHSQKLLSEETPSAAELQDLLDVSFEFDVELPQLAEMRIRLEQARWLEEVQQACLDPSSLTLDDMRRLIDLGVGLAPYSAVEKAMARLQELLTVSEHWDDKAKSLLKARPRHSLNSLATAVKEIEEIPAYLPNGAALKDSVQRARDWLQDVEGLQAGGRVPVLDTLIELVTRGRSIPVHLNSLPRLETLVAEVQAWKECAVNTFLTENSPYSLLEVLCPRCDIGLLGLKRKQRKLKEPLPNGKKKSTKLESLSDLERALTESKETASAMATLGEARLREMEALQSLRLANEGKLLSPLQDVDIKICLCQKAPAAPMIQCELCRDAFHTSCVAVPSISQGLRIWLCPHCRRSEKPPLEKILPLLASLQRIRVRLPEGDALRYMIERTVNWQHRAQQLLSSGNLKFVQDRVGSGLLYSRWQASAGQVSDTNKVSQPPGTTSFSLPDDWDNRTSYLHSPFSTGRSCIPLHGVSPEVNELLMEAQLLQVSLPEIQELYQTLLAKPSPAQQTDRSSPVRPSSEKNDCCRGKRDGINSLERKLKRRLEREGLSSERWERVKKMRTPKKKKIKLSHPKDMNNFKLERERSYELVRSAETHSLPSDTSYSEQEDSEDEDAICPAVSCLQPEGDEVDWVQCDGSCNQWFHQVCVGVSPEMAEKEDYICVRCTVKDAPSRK", "assay": "Primary screen for KDM5B Histone Demethylases FDH-coupled qHTS; further: nearly all actives have a fitted effect of over 70% in size; on activity change, negative = inhibition: 0% is about no effect", "details": "FDH-coupled NADH fluorescence (FDH is formaldehyde dehydrogenase); activity change, negative = inhibition: at 57.7 µM (top of the series) unless noted", "how_it_was_run": "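Inhibition is measured as reduced NADH fluorescence generation from FDH coupling to formaldehyde release. Truncated KDM5BΔAP at 200 nM final acts on H3K4me3 peptide (12.5 µM in substrate mix) in pH 7.5 HEPES buffer with Tween-20, 30 min, room temperature.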"}
{"smiles": "Cn1cccc1C(=O)N1CCCN(Cc2ccncc2)C(c2ccccc2)CC(=O)NCC1", "note": "(centres undefined)", "Potency": "inconclusive: 20 µM [inhibitor, single point]"}
{"smiles": "Brc1cccc(-c2noc(CCc3nc4ccccc4[nH]3)n2)c1", "activity change, negative = inhibition": "inactive: -4.62%"}
{"smiles": "O=C(NCc1ccccc1)c1ccc(-c2cccc3c2CCNC3)o1", "Potency": "inconclusive: 25.1 µM [inhibitor, single point]"}
{"smiles": "Cc1ccccc1NC(=O)CSc1nc2c(cc1C#N)CCCC2", "activity change, negative = inhibition": "inactive: 8.34%"}
{"smiles": "CCOC(=O)c1ccc(NC(=O)c2sc3nc4n(c(=O)c3c2C)CCC4)cc1", "activity change, negative = inhibition": "inactive: -16.4%"}
{"smiles": "COC(=O)COc1ccc2ccc(=O)oc2c1", "Potency": "inconclusive: 28.2 µM [inhibitor, partial curve, poor fit]"}
{"smiles": "O=C(Nc1cccc(O)c1)c1cc(-c2ccco2)nc2ccccc12", "Potency": "inconclusive: 28.2 µM [inhibitor, partial curve, poor fit]"}
{"smiles": "COc1ccc(-c2nc(C3CC3)nc3c2CN(C(=O)c2ccccc2)CC3)cc1", "Potency": "inconclusive: 56.2 µM [inhibitor, partial curve, poor fit]"}
{"smiles": "Cc1nn(C(=O)CCC(=O)N2CCC(Cc3nc(C4CCOCC4)no3)CC2)c2ccccc12", "Potency": "inconclusive: 39.8 µM [inhibitor, single point]"}
{"smiles": "O=C(CSc1nnc(NC(=O)C2CCC2)s1)Nc1ccccc1", "Potency": "inconclusive: 17.8 µM [inhibitor, partial curve, poor fit]"}
{"smiles": "COCC(=O)NC1CCCCCC1", "activity change, negative = inhibition": "inactive: 28.6%"}
{"smiles": "Cc1ccc(C(=O)O)cc1C", "activity change, negative = inhibition": "inactive: -7.52%"}
{"smiles": "CC(CNC(=O)Cn1c(-c2cccs2)cc2cc(Cl)ccc21)c1ccccc1", "note": "(centres undefined)", "Potency": "inconclusive: 1.41 µM [inhibitor, partial curve, poor fit]"}
{"smiles": "N#Cc1ccccc1CN1CCCc2ccccc21", "activity change, negative = inhibition": "inactive: -21.8%"}
{"smiles": "Cc1ccc(CSc2nc3cccnc3n2Cc2ccc(C(=O)NCc3cccs3)cc2)cc1", "Potency": "inconclusive: 35.5 µM [inhibitor, partial curve, poor fit]"}
{"smiles": "O=C(/C=C/c1cccnc1)c1ccc2cccc3c2c1CC3", "Potency": "inconclusive: 28.2 µM [inhibitor, partial curve, poor fit]"}
{"smiles": "O=C(NCc1nnc2ccc(-c3ccccc3)nn12)c1ccccc1OC(F)(F)F", "Potency": "inconclusive: 28.2 µM [inhibitor, partial curve, poor fit]"}
{"smiles": "COC(=O)C1=C(C)N=C2SC=C(CC(=O)N3CCCC(C(N)=O)C3)N2C1c1cccc(Cl)c1", "note": "(centres undefined)", "Potency": "inconclusive: 17.8 µM [inhibitor, partial curve]"}
{"smiles": "CNC(=O)CCn1ncc2cc(OCc3ccccc3-c3cnc(OC)nc3)ccc21", "Potency": "inconclusive: 31.6 µM [inhibitor, single point]"}
{"smiles": "COc1ccc(-c2nc3c(s2)CN(C(C(=O)O)c2c[nH]c4ccc(CO)cc24)CC3)cc1", "note": "(centres undefined)", "Potency": "inconclusive: 28.2 µM [inhibitor, partial curve, poor fit]"}
{"smiles": "c1cc(Cn2cccn2)cc(-c2cn(CC3CNCCO3)nn2)c1", "note": "(centres undefined)", "Potency": "inconclusive: 12.6 µM [inhibitor, partial curve, poor fit]"}
{"smiles": "CN(C)c1ccc(/C=N/NC(=O)c2cccs2)cc1Br", "Potency": "inconclusive: 39.8 µM [inhibitor, single point]"}
{"smiles": "Cc1ccc(S(=O)(=O)N2CCCC(CCC(=O)N3CCOCC3)C2)cc1", "note": "(centres undefined)", "activity change, negative = inhibition": "inactive: -14.7%"}
{"smiles": "Cc1ccc(Nc2nc(C(N)=O)c(NC(=O)c3ccccc3Br)s2)cc1", "Potency": "inconclusive: 25.1 µM [inhibitor, partial curve, poor fit]"}
{"smiles": "CN(Cc1ccc(Br)cc1)C(=O)c1cc2ccccc2[nH]1", "activity change, negative = inhibition": "inactive: 1.65%"}
{"smiles": "O=C(Cn1ccn2nc(-c3ccccc3)c(CO)c2c1=O)N1CCc2ccccc21", "Potency": "inconclusive: 22.4 µM [inhibitor, partial curve, poor fit]"}
{"smiles": "Cc1cc(Oc2nc3ccccn3c(=O)c2/C=C(\\C#N)c2nc3ccccc3s2)ccc1Cl", "Potency": "inconclusive: 11.2 µM [inhibitor, partial curve, poor fit]"}
{"smiles": "COc1cc(OC)cc(C(=O)Nc2ccc3oc(-c4ccc(OC)c(Cl)c4)nc3c2)c1", "Potency": "inconclusive: 35.5 µM [inhibitor, single point]"}
{"smiles": "O=C(NCCc1cnccn1)[C@H]1CNC[C@@H](C(=O)N2CCOCC2)C1", "activity change, negative = inhibition": "inactive: 19.7%"}
{"smiles": "O=C(O)c1cc(-c2ccc(Br)s2)nc2ccccc12", "Potency": "inconclusive: 14.1 µM [inhibitor, partial curve, poor fit]"}
{"smiles": "COc1ccc(C(=O)NC2CCN(c3cc(-c4ccc(Cl)cc4)[nH]n3)CC2)cc1", "Potency": "inconclusive: 39.8 µM [inhibitor, single point]"}
{"smiles": "O=C(NCc1ccco1)c1cc(-c2ccncc2)nc2ccccc12", "Potency": "inconclusive: 28.2 µM [inhibitor, partial curve, poor fit]"}
{"smiles": "CN(C)c1cccc(-c2cnc(Nc3cnccn3)c3c2CCO3)c1", "Potency": "inconclusive: 35.5 µM [inhibitor, partial curve, poor fit]"}
{"smiles": "CC1(C(=O)NC2CCN(Cc3ccccc3)CC2)CCCCC(=O)N1", "note": "(centres undefined)", "activity change, negative = inhibition": "inactive: -18.1%"}
{"smiles": "CNc1nc2c(c(=O)n(C)c(=O)n2C)n1CCc1ccccc1", "activity change, negative = inhibition": "inactive: 15.5%"}
{"smiles": "O=C(CCC(F)(F)F)N1CCC(Oc2cnc3c(ccn3-c3cncnc3)c2)CC1", "activity change, negative = inhibition": "inactive: 1.6% [at 86.2 µM]"}
{"smiles": "COc1ccc2cc(CNc3ccccc3)c(=O)n(CC(=O)Nc3ccc(C(C)=O)cc3)c2c1", "Potency": "inconclusive: 2.24 µM [inhibitor, full curve, poor fit]"}
{"smiles": "COc1cccc(CNC(=O)CCn2c(=O)c3cccn3c3cccnc32)c1", "Potency": "inconclusive: 28.2 µM [inhibitor, single point]"}
{"smiles": "O=C1/C(=C/c2cccc(Br)c2)Cc2ccccc21", "activity change, negative = inhibition": "inactive: -8.01%"}
{"smiles": "COc1cc2c(cc1OC)/C(=C/S(=O)(=O)c1ccc(C)c(C)c1)NCC2", "Potency": "inconclusive: 28.2 µM [inhibitor, partial curve, poor fit]"}
{"smiles": "Cc1cc2nc(CCNC(=O)[C@H]3CCC[C@@H](O)C3)[nH]c2cc1C", "activity change, negative = inhibition": "inactive: -6.15%"}
{"smiles": "O=C(NCc1nnc2ccc(-c3ccccc3)nn12)c1cccc(Br)c1", "Potency": "active: 22.4 µM"}
{"smiles": "N#Cc1ccc(Cn2c(=O)c3c(ncn3C3CCCC3)n(Cc3ccccc3)c2=O)cc1", "activity change, negative = inhibition": "inactive: -13.3%"}
{"smiles": "CC(C)c1noc(-c2cccn3c(CNC(=O)CCCc4ccccc4)nnc23)n1", "Potency": "inconclusive: 22.4 µM [inhibitor, partial curve, poor fit]"}
